Values joined by “and” are separate entries in the source; they are usually repeats but may differ in a detail not shown here. Equal values may be shown once.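 Five compound concentrations were applied to cells in 96-well plates for 48 hours; endpoints were derived by simple linear interpolation of the resulting dose-response curve. At the GI50, growth is halved. TGI: concentration producing complete growth inhibition.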
System: NCI-H322M lung
Experiment: NCI-60 cell line screen, 48 h

| Compound | TGI | GI50 |
| --- | --- | --- |
| CCCN1C(=O)CNC(=O)c2[nH]cnc21 | > 100 µM | – |
| CC(CN)[C@@H]1CC[C@]2(CO)CC[C@]3(C)[C@H](CC[C@@H]4[C@@]5(C)CCC(N)C(C)(C)[C@@H]5CC[C@]43C)[C@@H]12 (some centres undefined) | 3.08 µM | 1.63 µM |
| COc1cc(N2CCC(N3CCN(C)CC3)CC2)ccc1Nc1ncc(Cl)c(Nc2ccccc2S(=O)(=O)C(C)C)n1 | 11.5 µM | 1.33 µM |
| CCOC(=O)c1c(CN2CCCC2)n(-c2ccccc2)c2cc(Br)c(OC)cc12 | 83.8 µM | – |
| O=C1NC2C(CCO)CC=C[C@H]2c2cc3c(cc21)OCO3 (some centres undefined) | > 100 µM | – |
| COC(=O)c1ccc(NCC2=CC(=O)C=CC2=O)cc1 | 31.6 µM | – |
| COc1ccc2c(c1)CC[C@@H]1[C@@H]2CC[C@]2(C)C(=O)/C(=C/c3ccc(O)c(OC)c3)C[C@@H]12 | > 100 µM | – |
| O=c1c2cc(S(=O)(=O)Nc3c(Cl)cccc3Cl)ccc2ncn1NS(=O)(=O)c1ccc2ccccc2c1 | > 62.5 µM | – |
| O=S(O)c1cc(Cl)cc(Cl)c1OCc1ccccc1 | > 100 µM | – |
| O=C(O)CCSC(=S)Nc1ccc([N+](=O)[O-])cc1 | > 100 µM | – |
| COc1ccc(C(c2ccc3c(c2)OCO3)N2C(=O)CCC2C(=O)O)cc1 (centres undefined) | > 100 µM | – |
| CCOC(=O)NC1CC2CCC1(OC)C=C2C (centres undefined) | > 100 µM | – |
| Cc1c(CC/C(=N\Nc2ccc([N+](=O)[O-])cc2[N+](=O)[O-])c2ccccc2)c2ccccc2n1C | > 100 µM | – |
| COC(=O)N/N=C(/Cc1occc(=O)c1O)C(=O)Nc1ccc([N+](=O)[O-])cc1[N+](=O)[O-] | > 100 µM | – |
| O=C1C[C@H](CCC(=O)OCc2ccccc2)NC(=O)C[C@H](CCC(=O)OCc2ccccc2)NC(=O)C[C@H](CCC(=O)OCc2ccccc2)N1 | > 100 µM | – |
| O=C(c1cccs1)N(Cc1cccnc1)C(=S)N(Cc1cccnc1)C(=O)c1cccs1 | > 100 µM | – |
| c1cc(C[S+]2CCCC2)sc1C[S+]1CCCC1 | > 100 µM | – |
| COCN1C(=O)[C@@H]2CCCN2C(=O)c2ccc([N+](=O)[O-])cc21 | > 100 µM | – |
| CN(C)CCCN1c2ccccc2CCc2cc([N+](=O)[O-])ccc21 | 60.6 µM and 31.6 µM | – |
| CC1(O)Oc2ccc3ccccc3c2C=C1C(N)=O (centres undefined) | > 100 µM | – |
| COC(=O)C1(C(=O)OC)CC2=C(S(=O)(=O)c3ccccc3)C[C@H](C#N)[C@H]2C1 | > 100 µM | – |
| N#CSc1ccc(S(N)(=O)=O)cc1 | > 100 µM | – |
| O=C(O)c1ccc(NNC(=O)c2cccc3c(=O)c4ccccc4[nH]c23)cc1 | > 100 µM | – |
| COC(=O)c1ccccc1C1CN=NC12Cc1cc(C)cc(C)c1C2=O (centres undefined) | > 100 µM | – |
| CCOC(=O)c1cc(Br)c(-c2onc(C)c2Br)n1C | > 100 µM | – |

| Compound | TGI | GI50 |
| --- | --- | --- |
| CCOC(=O)c1ccc(Nc2nc3cc(C(F)(F)F)ccc3nc2C(=O)OCC)cc1 | > 100 µM | – |
| COc1cccc(Nc2nc(N)nc(N)c2N=O)c1 | 83.9 µM | – |
| COc1cc2c(cc1OCCCN1CCN(c3ncnc4ccccc34)CC1)N=CC1CCCN1C2=O (centres undefined) | 0.665 µM | 0.145 µM |
| CCN(CC)CCCNc1ncc(C)c2c1c1ccc3c(O)cccc3c1n2C | 4.74 µM | – |
| N#CCc1nc(-c2cc3c(ccc4ccccc43)oc2=O)cs1 | > 100 µM | – |
| c1ccc2c(c1)[nH]c1c2ncc2[nH]c3ccccc3c21 | 8.9 µM | – |
| CC1=Nc2ccccc2C12C(c1ccccc1)C(c1ccccc1)C(=O)N1c3ccccc3CC12 (centres undefined) | > 100 µM | – |
| CN1N=C2c3ccccc3CC[C@H]2C1c1cccc(O)c1 (some centres undefined) | > 100 µM | – |
| COc1ccc2c(c1)C(=O)c1c-2c(NCCN(C)C)nc2ccccc12 | 19.3 µM | 4.54 µM |
| Cc1ccc(/C=N/NS(=O)(=O)c2ccc(/C=C3\NC(=O)NC3=O)cc2)cc1 | > 100 µM | – |
| Fc1c(F)c(C(F)(F)F)c(F)c(F)c1N/N=C/c1cn(Cc2ccccc2)c2ccccc12 | 51.6 µM | – |
| Cn1c(=N)n[n+]([O-])c2ccccc21 | 25.6 µM and 29.8 µM | – |
| Cc1nn(C)c2cc(N(C)c3ccnc(Nc4cccc(S(N)(=O)=O)c4)n3)ccc12 | > 25 µM | 7.89 µM |
| CCCCCCCCCCCCC(CCCCCCCCCCCC)OP(=O)(O)O | > 100 µM | – |
| CC(C)(C)C(=O)/C=C/c1cccc(Oc2ccccc2)c1 | 37.1 µM | – |
| CCOC(=O)c1cc(OC(=O)CC)c2c(OC)ccc(OC)c2c1 | > 100 µM | – |
| Nc1nc(-c2cccs2)cs1 | > 100 µM | – |
| Cc1ccc(SSCCCCCS(=O)O)cc1 | > 100 µM | – |
| CC(C)c1cccc(C(C)C)c1NC(=O)CCC(=O)NN | > 100 µM | – |
| Cc1nnc2n1N=C(c1cc(F)c(Cl)cc1Cl)/C(=C/c1ccc3c(c1)OCO3)S2 | > 100 µM | – |
| CC#CC(=O)N1CC[C@@H](n2c(=O)n(-c3ccc(Oc4ccccc4)cc3)c3c(N)ncnc32)C1 | > 100 µM | 18.2 µM |
| O=C1C=C2CC[C@H]3[C@@H]4CC[C@H](OC(=O)c5cccc6cc7ccccc7nc56)[C@H]4CC[C@@H]3[C@H]2CC1 | > 100 µM | – |
| COc1ccc(C2C(C=O)C(N3CCN(C)CC3)=Nc3nc4ccccc4n32)cc1 (centres undefined) | 59.8 µM | – |
| N#CC(c1ccccc1)N(CCOCCOCCN(C(=O)c1cccc2ccccc12)C(C#N)c1ccccc1)C(=O)c1cccc2ccccc12 (centres undefined) | > 100 µM | – |
| C/C(=C\c1ccn(-c2ccc(N)cc2F)n1)[C@@H]1C[C@@H]2O[C@]2(C)CCC[C@H](C)[C@H](O)[C@@H](C)C(=O)C(C)(C)[C@@H](O)CC(=O)O1 | > 50 µM | 0.0247 µM |

| Compound | TGI | GI50 |
| --- | --- | --- |
| CC1C(O)Oc2cc3c(cc2C1c1ccccc1O)OCO3 (centres undefined) | > 100 µM | – |
| Oc1c(I)cc(I)cc1CN(Cc1ccccn1)Cc1ccccn1 | 27 µM | 0.714 µM |
| O=C(CC(=O)N1N=C(N(c2ccccc2)c2ccccc2)CC1c1ccccc1)Nc1ccccc1 (centres undefined) | > 100 µM | – |
| C#CCCOC(=O)c1ccccc1OC(C)=O | > 100 µM | – |
| C=C1C(=O)O[C@H]2[C@H]1CC/C(COC(=O)NCc1cc(OC)cc(OC)c1)=C\CC[C@@]1(C)O[C@@H]21 | 17.8 µM | 4.72 µM |
| CNC(=O)Nc1ccccc1 | > 100 µM | – |
| Cc1cc(O)c2c(c1)CC(O)C1=C2C(=O)c2c(O)ccc(OC3CC(O)C(OC4CC(OC5CCC(O)C(C)O5)C(O)C(C)O4)C(C)O3)c2C1=O (centres undefined) | 9.43 µM | – |
| CC(=O)CCC[C@H](C)[C@@H](O)[C@@H]1O[C@H]([C@@]2(C)CCC(=O)O2)C[C@H]1C(=O)O | > 100 µM | – |
| CC/C(SC)=[N+](\C)[O-] | > 100 µM | – |
| Cc1ccccc1NC(=O)c1ccc([N+](=O)[O-])cc1 | > 100 µM | – |
| COc1cc(Nc2nc3cc(C(F)(F)F)ccc3nc2C)cc(OC)c1OC | 11.9 µM | – |
| C=C[C@H]1C=Cc2c(OC)cccc2[C@@H]1COP1(=S)NC(C)C(c2ccccc2)O1 (some centres undefined) | > 100 µM | – |
| O=C(Nc1ccc(Cl)cc1)NS(=O)(=O)c1c(-c2ccccc2)oc2ccccc2c1=O | > 100 µM | – |
| O=C(OCc1ccccc1)N1CCCc2c(n(S(=O)(=O)c3ccccc3)c3ccccc23)C1 | > 100 µM | – |
| O=c1/c(=C/c2ccc([N+](=O)[O-])o2)sc2n1[C@@H](c1ccc3c(c1)OCO3)C=C(c1cc(F)c(Cl)cc1Cl)N=2 | > 100 µM | – |
| CN1CCc2cc(N)cc3c2C1Cc1ccc2c(c1-3)OCO2 (centres undefined) | > 73.7 µM | – |
| CCN(CC)CCCCC1CCN(CC(=O)N2c3cc(Cl)ccc3NC(=O)CC2C)CC1 (centres undefined) | > 100 µM | – |
| CCN(CC)C(=S)SS(=O)(=O)c1ccc(NC(C)=O)cc1 | > 100 µM | – |
| CC[CH2][Sn]([CH2]CC)([O]C(=O)Cc1ccc(F)cc1)[O][Sn]([CH2]CC)([CH2]CC)[O]C(=O)Cc1ccc(F)cc1 | 2.55 µM | 1.28 µM |
| CCOP(=O)(OCC)C(F)(F)Cc1cnc(C)c2c1COC(C)(C)O2 | > 10 µM | – |
| CSC1(CC(=O)N2CCCCC2)C(=O)Nc2ccccc21 (centres undefined) | > 100 µM | – |
| CCN(CC)CC[n+]1cc2cc(OC)c(OC)cc2c2ccc3cc4c(cc3c21)OCO4 | 2.12 µM | 0.447 µM |
| O=[N+]([O-])c1ccc(C(=Nc2ccccc2)SSC(=Nc2ccccc2)c2ccc([N+](=O)[O-])o2)o1 | 3.37 µM | – |
| Nc1c2ccccc2nc2ccccc12 (tested in a mixture with another compound) | 7.84 µM | 2.77 µM |
| Cn1c(=O)c2c(nc3n(C)c(=O)c4ccccc4n23)n(C)c1=O | > 100 µM | – |

| Compound | TGI | GI50 |
| --- | --- | --- |
| Nc1ncnc2c1ncn2C1OC(COC2C(CO)OC(OC(C(=O)O)C(O)C(OP(=O)(O)O)C(O)C(=O)O)C(O)C2O)C(O)C1O (centres undefined) | > 100 µM | – |
| Fc1cccc(-c2[nH]nc3nc(Nc4cccnc4)sc23)c1 | > 100 µM | > 100 µM |
| CC(C)(C)c1cc(-c2nc3c(F)c(F)c(F)c(F)c3[nH]2)cc(C(C)(C)C)c1O | > 100 µM | > 100 µM |
| COC(C)(C)[C@H](O)C(O)CC(C)[C@@H]1CCC23CC12CCC1[C@@]2(C)CCC(OC(C)=O)C(C)(C)C2CC(OC2OC(COC(C)=O)C(O)C(O)C2O)[C@]13C (some centres undefined) | 7.44 µM and 7.97 µM | 3.17 µM |
| CCOC(=O)Nn1c(C)cc(C(=O)OC)c1C | > 100 µM | – |
| Cc1cc(=O)[nH]c(NNC(C#N)c2ccco2)n1 (centres undefined) | > 100 µM | – |
| COC(=O)C(=O)C(C(=O)OC)C(=O)C(=O)Nc1cc(Cl)c(Cl)cc1Cl (centres undefined) | > 100 µM | – |
| FC(F)(F)c1nc(-c2ccccc2)oc1Sc1oc(-c2ccccc2)nc1C(F)(F)F | > 100 µM | – |
| O=c1cc(-c2cccc(OCc3ccccc3)c2)[nH]c2cc3c(cc12)OCO3 | > 100 µM | – |
| CCCCCCCCCCCCCCCCCC[N+](C)(C)Cc1ccc(C[N+](C)(C)CCCCCCCCCCCCCCCCCC)cc1 | 39.8 µM | – |
| CCO/C=C(\C(=O)OC)S(=O)(=O)c1ccc(C)cc1 | > 100 µM | – |
| C#Cc1cc(CN(CC(=O)OC(C)(C)C)CC(=O)OC(C)(C)C)nc(CN(CC(=O)OC(C)(C)C)CC(=O)OC(C)(C)C)c1 | > 100 µM | – |
| CNC(=O)CN1CCC(Oc2cc3c(Nc4cccc(Cl)c4F)ncnc3cc2OC)CC1 | 11.3 µM and > 10 µM | < 0.01 µM and 0.0166 µM |
| CCOC(=O)c1ccc(N=c2oc3ccc(OC)cc3cc2-c2nc3ccccc3[nH]2)cc1 | > 100 µM | – |
| CC(C)N1[C@@H]2CCCC[C@H]2N(C(C)C)P1(=O)C(=O)/C=C/c1ccccc1 | 11.9 µM | – |
| c1ccc2c(CNCCCCCCCCCCCCNCc3cccc4ccccc34)cccc2c1 | 3.3 µM | – |
| CCOC(=O)N1C=CC(=C2C(=C3C=CN(C(=O)OCC)C=C3)C(=C3C=CN(C(=O)OCC)C=C3)C2=C2C=CN(C(=O)OCC)C=C2)C=C1 | 69.6 µM | – |
| CN(C)Cc1cc(/C=C/C(=O)c2ccc(Cl)c(Cl)c2)cc(CN(C)C)c1O | 28.7 µM | – |
| Nc1ccc(-c2ccc(-c3nc4cc(Cl)c(Cl)cc4[nH]3)cc2)cc1 | 20.6 µM | 1.61 µM |
| O=c1[nH]c2cc([N+](=O)[O-])ccc2nc1/C=C(\O)c1ccc(Cl)cc1 | 37.5 µM | – |
| COC(=O)[C@@H]1OC(C)(c2ccccc2)O[C@H]1C(=O)OC | > 100 µM | – |
| COc1ccc(C2=NN(C(=O)c3cccnc3)C(O)(c3cc(F)c(Cl)cc3Cl)C2)cc1OC (centres undefined) | > 100 µM | – |
